Laboratory results from article doi:10.1101/308676, “MLL1 minimal catalytic complex is a dynamic conformational ensemble susceptible to pharmacological allosteric disruption” (bioRxiv, 2018).

Key:
RbBP5-NTD (aa 10-340) = RbBP5-NTD (aa 10-340) (UniProt Q15291 10-340); test: pull-down; GST-MLL1 proteins with RbBP5 constructs at 1:2 molar ratio, 4 °C 1 h, then glutathione-Sepharose 1 h; 20 mM Tris pH 7.7, 150 mM NaCl, 10 μM ZnCl2, 5 mM β-mercaptoethanol, 5 mM DTT, 1 mM PMSF; eluted with 30 mM reduced glutathione, SDS-PAGE and Coomassie; conditions: both partners purified
[1] = target: RbBP5 full-length (aa 1-538), from E. coli (UniProt Q15291); test: as above; conditions: both partners purified

binding result (RbBP5-NTD (aa 10-340)): binds
binding result [1]: binds
B1: GST-MLL1-SET (human MLL1 […]) (domain or fragment)
chain: not shown
notes: MLL1 (mixed lineage leukemia protein 1), human, […]: RBS segment and SET domain; In the pull-down the GST tag is kept (bait on glutathione-Sepharose); also called MLL1-SET-GST; source: E. coli BL21(DE3) codon plus RIL, purified (GST fusion); not shown: GST, N-terminal, kept
